# According to patent US11807625B2, “Capsid inhibitors for the prevention of HIV” (Gilead Sciences, Inc., priority 2019, dated 2023):
# Values joined by “and” are separate entries in the source; they are usually repeats but may differ in a detail not shown here. Identical values can stand only once. This continues a long series; more values of the same kind are listed elsewhere.
# Tested on: SHIV
# Assay: PrEP efficacy in rhesus repeat intrarectal SHIV challenge model, plasma viral load by qRT-PCR
# Assay type: in vivo, rhesus macaques
# Protocol: The PrEP efficacy a compound of Formula (Ib) in rhesus was evaluated using a repeat intrarectal (IR) challenge model.
# This study also established a correlation between exposure and protection using a single high-dose administration of a compound of Formula (Ib) vs. placebo, followed by multiple weekly IR challenges until infection occured. In this study, multiple challenges overlapped with clinically-relevant drug levels. The supratherapeutic IQs (inhibitory quotients) were assessed to maximize protection and achieve proof-of-concept in case rectal tissue levels were much lower than in plasma. Lower doses of a compound of Formula (Ib), or a pharmaceutically acceptable salt thereof, were assessed to capture more challenges at clinically relevant exposures, reducing the number of IR challenges, and facilitating a drug washout phase. The washout phase lasted for at least 20 weeks. In some embodiments, the washout phase lasted for 20-25 weeks. The washout phase of these studies was important to enable the administered drug concentrations to decline sufficiently below those that were expected to be clinically suppressive in order to confirm that animals that remained aviremic in the study did so because they were protected from infection as opposed to being infected following one or more of the viral challenges but remaining suppressed by prolonged therapeutic concentrations of the long-acting drug in plasma and/or tissue compartments.
# FIG. 3 is a schematic of the study using a compound of Formula (Ib) in adult rhesus macaques (1:1 male/female ratio). Eight animals per group were treated with a single dose of placebo control, 150 mg/kg of a compound of Formula (Ib) (“Compound 1b”) or 300 mg/kg of a compound of Formula (Ib) (“Compound 1b”) on week 0 and allowed to wash out over time. All animals were challenged intrarectally with SHIV weekly beginning on week 1 until detectable viremia or up to a maximum of 15 challenges. SHIV challenge titer was increased over time from 10 TCID50 to 100 TCID50 through week 15 as depicted. Animal SHIV infection rate was assessed by weekly plasma viral load monitoring by qRT-PCR through study week 20. The protective efficacy of a compound of Formula (Ib) (“Compound 1b”) was established by comparing to infection rate observed in the placebo control group using the Cox proportional hazards model analysis.
# Viral infection was scored one week after each SHIV challenge using a quantitative RT-PCR assay. Infected animals were defined as having a viral load >200 copies per mL plasma and the corresponding plasma viral load values are bolded.
# Viral load measurements details: RNA was extracted from plasma using a QIAcube HT and the QIAcube 96 Cador pathogen HT kit (Qiagen). Gag RNA standards were generated using the AmpliCapMax™ T7 High Yield Message Maker Kit (Cell Script) and purified with RNA clean and concentrator kit (Zymo Research). Log dilutions of RNA were included with each assay run. Reverse transcription of both standards and samples was performed using Superscript III VILO (Invitrogen). Quantitative PCR was performed using the Quantstudio 6 Flex system with TaqMan™ Fast Advanced Master Mix (Applied Biosystems). Primer sequences were F-[…] (SEQ ID NO. 1) and R-[…] (SEQ ID NO. 2). The probe sequence was […] (SEQ ID NO. 3), and probe was labeled with FAM and BHQ (Biosearch Technologies). Viral loads were calculated as gag copies per mL.
structure (smiles),measurement,setting,value
"CC(C)(C#Cc1ccc(-c2ccc(Cl)c3c(NS(=O)(=O)C4CC4)nn(CC(F)F)c23)c([C@H](Cc2cc(F)cc(F)c2)NC(=O)Cn2nc(C(F)F)c3c2C(F)(F)[C@@H]2C[C@H]32)n1)S(C)(=O)=O [Compound Ib, N—((S)-1-(3-(4-chloro-3-(cyclopropanesulfonamido)-1-(2,2-difluoroethyl)-1H-indazol-7-yl)-6-(3-methyl-3-(methylsulfonyl)but-1-yn-1-yl)pyridin-2-yl)-2-(3,5-difluorophenyl)ethyl)-2-((3b S,4aR)-3-(difluoromethyl)-5,5-difluoro-3b,4,4a,5-tetrahydro-1H-cyclopropa[3,4]cyclopenta[1,2-c]pyrazol-1-yl)acetamide]",Plasma SHIV,"150 mg/kg SC day 0, individual animals, study week 11, intrarectal SHIV dose 100 x TCID50, listed as Compound lb",<200 copies/mL (7×) and 2317 copies/mL
same,Plasma SHIV,"150 mg/kg SC day 0, individual animals, study week 12, intrarectal SHIV dose 100 x TCID50, listed as Compound lb",<200 copies/mL (7×) and 1251253 copies/mL
same,Plasma SHIV,"150 mg/kg SC day 0, individual animals, study week 13, intrarectal SHIV dose 100 x TCID50, listed as Compound lb",<200 copies/mL (5×) and 4495324 copies/mL and 15543 copies/mL and 200 copies/mL
same,Plasma SHIV,"150 mg/kg SC day 0, individual animals, study week 14, intrarectal SHIV dose 100 x TCID50, listed as Compound lb",<200 copies/mL (5×) and 192698 copies/mL and 302527 copies/mL and 14481 copies/mL
same,Plasma SHIV,"150 mg/kg SC day 0, individual animals, study week 15, intrarectal SHIV dose 100 x TCID50, listed as Compound lb",<200 copies/mL (5×) and 1636073 copies/mL and 41252 copies/mL and 436449 copies/mL
same,Plasma SHIV,"150 mg/kg SC day 0, individual animals, study week 16, SHIV dose N/A, listed as Compound lb",43433 copies/mL and <200 copies/mL (3×) and 144532 copies/mL and 37186 copies/mL and 15508 copies/mL and 62513 copies/mL
same,Plasma SHIV,"150 mg/kg SC day 0, individual animals, study week 17, SHIV dose N/A, listed as Compound lb",28104 copies/mL and <200 copies/mL (2×) and 128422 copies/mL and 4020 copies/mL and 5872 copies/mL and 1974 copies/mL and 76901 copies/mL
same,Plasma SHIV,"150 mg/kg SC day 0, individual animals, study week 18, SHIV dose N/A, listed as Compound lb",8535 copies/mL and <200 copies/mL (2×) and 144695 copies/mL and 18625 copies/mL and 13017 copies/mL and 2250 copies/mL and 14905 copies/mL
same,Plasma SHIV,"150 mg/kg SC day 0, individual animals, study week 19, SHIV dose N/A, listed as Compound lb",2197 copies/mL and <200 copies/mL (2×) and 23783 copies/mL and 733 copies/mL and 4607 copies/mL and 1586 copies/mL and 872 copies/mL
same,Plasma SHIV,"300 mg/kg SC day 0, individual animals, study week 11, intrarectal SHIV dose 100 x TCID50",<200 copies/mL
same,Plasma SHIV,"300 mg/kg SC day 0, individual animals, study week 12, intrarectal SHIV dose 100 x TCID50",<200 copies/mL
same,Plasma SHIV,"300 mg/kg SC day 0, individual animals, study week 13, intrarectal SHIV dose 100 x TCID50",<200 copies/mL
same,Plasma SHIV,"300 mg/kg SC day 0, individual animals, study week 14, intrarectal SHIV dose 100 x TCID50",<200 copies/mL
same,Plasma SHIV,"300 mg/kg SC day 0, individual animals, study week 15, intrarectal SHIV dose 100 x TCID50",<200 copies/mL
same,Plasma SHIV,"300 mg/kg SC day 0, individual animals, study week 16, SHIV dose N/A",<200 copies/mL
same,Plasma SHIV,"300 mg/kg SC day 0, individual animals, study week 17, SHIV dose N/A, listed as Compound lb",9063 copies/mL and 13193 copies/mL and <200 copies/mL (5×) and 13143 copies/mL
same,Plasma SHIV,"300 mg/kg SC day 0, individual animals, study week 18, SHIV dose N/A, listed as Compound lb",<200 copies/mL (6×) and 6116 copies/mL and 1633235 copies/mL
same,Plasma SHIV,"300 mg/kg SC day 0, individual animals, study week 19, SHIV dose N/A, listed as Compound lb",<200 copies/mL (3×) and 200 copies/mL (4×) and 123639 copies/mL
